Results reported in PubChem BioAssay AID1508623 (National Center for Advancing Translational Sciences (NCATS), 2021).
About 450 (0.94%) of roughly 48,000 compounds were called active. Not shown: some 19% with an inconclusive outcome. Calls come from the whole dose curve; as a rule, active = well fitted inhibition curve with a large enough effect; inconclusive = small, poorly fitted or top-dose-only effect; inactive = no such curve, though single readings can be large or run the other way. The list shows a part of the results.

Assay: Primary qHTS for Identification of Small Molecule Inhibitors of Huntingtin Promoter Activity; note: nearly all actives have a fitted effect of over 50% in size
Settings: HEK293 HTT promoter firefly luciferase reporter (activity 0% = vehicle and -100% = no light), 24 h; series mostly up to 57.5 µM; activity change, negative = inhibition: at the top concentration
Outline: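 Luminescence was read after Dual-Glo reagent and a 10 min room-temperature incubation. Values were normalized to vehicle (0% activity) and zero RLU (-100% activity). Reporter HEK293 cells had been exposed to compounds (up to 57.5 uM final) for 24 h.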

Activity change, negative = inhibition, inactive:
COc1cc(-c2nnc(SCC(=O)Oc3ccccc3)o2)cc(OC)c1OC 4.31%
CSCCC(NS(=O)(=O)c1cccs1)C(=O)Nc1ccc(C)c(Cl)c1 (stereo not drawn) 4.12%
COC(=O)c1ccc(Cn2c(SCC(=O)NCc3ccccc3)nc3ccccc32)cc1 -7%
O=C(CO)[C@@H](O)[C@H](O)[C@@H](O)CO 7.65%
CC(=O)c1ccc(NC(=O)CSc2nnc(NC(=O)Nc3ccccc3)s2)cc1 13.3%
COc1ccc(Cl)cc1NC(=O)c1ncn(-c2ccccc2)n1 -7.61%
COc1ccc(OC)c(NC(=O)Cc2c(C)n(C(=O)c3ccc(Cl)cc3)c3ccc(OC)cc23)c1 -10.4%
CC(=O)c1cccc(NC(=O)CN2C(=O)c3cccnc3Sc3ccccc32)c1 4.36%
CCc1ccc(NC(=O)Cn2c(=O)n(-c3ccccc3)c(=O)c3ccc(C(=O)NCc4ccc5c(c4)OCO5)cc32)cc1 -28.4%
Cc1ccc(C)c(Cn2c(=O)n(Cc3ccco3)c(=O)c3oc4ccccc4c32)c1 -15.8%
CCc1ccccc1NC(=O)c1sc2nc3n(c(=O)c2c1C)CCC3 44%
CCN1CCOC(=O)C1CC(=O)Nc1ccc(C(C)=O)cc1 (stereo not drawn) -5.86%
COc1cc(CN(C(=O)c2ccc(OC(C)C)cc2)C2CCS(=O)(=O)C2)cc(OC)c1OC (stereo not drawn) -14.5%
O=C(NCCCc1nc2ccccc2n1Cc1ccccc1)C1CCCCC1 -29%
Cc1ccccc1OCc1ccc(-c2nc(C#N)c(N3CCN(c4ccccc4)CC3)o2)o1 -23.3%
CCOc1ccc(CNC(=O)c2ccc(NC(=O)N3CCSc4ncccc43)cc2)cc1OC -16.4%
COc1cccc(Cn2c(C)c(CNCc3ccccc3Cl)c(C(=O)O)c2C)c1 12.4%
CN(C)c1cc2c(cc1NC(=O)c1ccc(F)cc1)n(C)c(=O)n2C -10.7%
CCc1ccc(-c2cc(C)no2)cc1S(=O)(=O)Nc1ccc(C)cn1 -35.3%
Cc1cccc(-c2nnn3c2nc(NCc2ccccc2)c2ccccc23)c1 15.7%
CC(C)CCNC(=O)C1CCN(S(=O)(=O)c2cccc3nsnc23)CC1 -4.98%
CNC(=O)C1CCN(Cc2cc3ccccc3n2Cc2cccc(C)c2)CC1 -4.44%
CCc1ccc(-n2nc(CO)c(C(=O)NCC(c3ccccc3)c3ccccc3)n2)cc1 -0.591%
Cc1ccc(N(Cc2cc3ccccc3[nH]c2=O)C(=O)c2cccc(Cl)c2)cc1 -23.7%
CCN(CC)CCCNC(=O)CSc1nc2nc(C)c(Cc3c(F)cccc3Cl)c(C)n2n1 -8.62%
Cc1ccc(-c2cn3c(n2)sc2cc(C(=O)NCc4cccs4)ccc23)c(C)c1 4.2%
CC(C)NC(=O)C(c1ccccc1)N1Cc2ccccc2C1=O (stereo not drawn) -18.9%
CC(C)c1ccc2occ(CC(=O)Nc3ccccc3Cl)c2c1 -10.8%
Cc1ccc(C)c(NC(=O)Cn2c(=O)n(Cc3ccc4c(c3)OCO4)c(=O)c3oc4ccccc4c32)c1 -15.6%
CC1=C(C(N)=O)C(c2cccc(C)c2)n2nc(-c3cccc(C)c3)nc2N1 (stereo not drawn) -17%
CCCc1nc2c(C)cc(-c3nc4ccccc4n3C)cc2n1Cc1ccc(-c2ccccc2C(=O)O)cc1
Cc1ccc(CSc2nnc(-n3c(=O)c(C#N)cc4c(=O)n5cc(C)ccc5nc43)s2)cc1 -23.9%
COc1ccc(-c2noc(CSc3nc(C)cc(=O)[nH]3)n2)cc1OC -20.2%
CCCCOC(=O)c1ccc(O)cc1 7.69%
OCCC#Cc1nc(-c2ccc(F)cc2)c(-c2ccncc2)n1CCCc1ccccc1 -15.3%
Cc1ccc(CNC(=O)c2cc(-c3ccc(C)cc3)nc3n[nH]c(-c4ccc(F)cc4)c23)cc1 -16.2%
CNCCCCOc1ccccc1Cc1ccccc1 -16.4%
CC(C)C1N=C2c3ccccc3N=C(SCC(=O)NCc3ccccc3Cl)N2C1=O (stereo not drawn) -24.5%
COCCCOc1cc(C[C@@H](C[C@H](N)[C@@H](O)C[C@H](C(=O)NCC(C)(C)C(N)=O)C(C)C)C(C)C)ccc1OC
COc1ccc(OC)c(CNC(=O)c2c(C)oc3ncn(C)c(=O)c23)c1 -3.27%
COc1ccc(N2CC(NC(=O)c3ccco3)CC2=O)cc1OC (stereo not drawn) -8.26%
COc1ccc(CNC(=O)c2ccc3c(c2)N(Cc2ccccc2C)C(=O)c2ccccc2S3=O)cc1 (stereo not drawn) -17.1%
O=C(NCc1ccc(F)cc1)C1CCN(c2ncnc3c2nc2n3CCCCC2)CC1 -0.992%
COc1ccc(CNc2oc(/C=C/c3cccc(OC)c3)nc2C#N)cc1 -15.3%
Nc1ccccc1N 32.6% [at 116 µM]
COc1cc(C(CC(=O)Nc2cc(C)ccc2C)N2Cc3ccccc3C2=O)cc(OC)c1OC (stereo not drawn) -21.5%
CC(=O)c1ccc(NC(c2ccc(F)cc2)c2nnc(-c3ccccc3)o2)cc1 (stereo not drawn) 1.55%
CC(C)(C)OC(=O)N1CCC(c2c(C(=O)N3CCN(c4ccccn4)CC3)cnn2-c2ccccc2Cl)CC1 -9.17%
CCOCCCNC(=O)c1cn(CC)c2ccc(S(=O)(=O)N3CCc4ccccc4C3)cc2c1=O -7.58%
Cc1ccc2nc(-c3ccncc3)c(Nc3ccc(C(C)C)cc3)n2c1 -16.7%
CCc1ccc(Nc2sc(C(=O)c3ccccc3)c(N)c2S(C)(=O)=O)cc1 -21.3%
CCOCCc1nn2c(=O)cc(COC(=O)CNC(=O)c3ccc(F)cc3)nc2s1 -8.9%
COC(=O)c1c(-c2cccs2)csc1NC(=O)c1cc(OC)c(OC)c(OC)c1 -22%
CC(C)CCNC(=O)c1nn(C)c2c1CSc1ccccc1-2 6.58%
COc1ccc(-n2ccn(CC(=O)Nc3ccc(C)c(C)c3)c(=O)c2=O)cc1OC -15.3%
COc1ccc(-c2cn3c(n2)sc2cc(C(=O)Nc4ccc(F)cc4Cl)ccc23)cc1 24.4%
CCOc1cc2[nH]c(=O)n(CCCC(=O)NCc3ccc(OC)cc3)c(=O)c2cc1OCC -6.09%
Cc1ccc(F)cc1NC(=O)CCSc1nc(-c2ccco2)cc(C(F)(F)F)n1 -23.9% [at 11.5 µM]
CC1=CC(=O)c2ccccc2C1=O
CCN(C(=O)c1cc2cc(Br)cc(OC)c2oc1=O)c1ccccc1 -12.9%
O=C(NC1CCCCCC1)c1ccc(CS(=O)c2ccc(Br)cc2)o1 (stereo not drawn) -32.4%
COc1cccc(C2c3c(-c4ccccc4O)n[nH]c3C(=O)N2Cc2cccnc2)c1 (stereo not drawn) -24.7%
CCc1ccccc1NC(=O)Cn1c(=O)n(-c2ccc(C)c(C)c2)c(=O)c2oc3ccccc3c21 -5.78%
